The whole screen tested about 45,000 compounds, of which about 65 (0.1%) were called active. Calls come from the whole dose curve; as a rule, active = well fitted activation curve with a large enough effect; inconclusive = small, poorly fitted or top-dose-only effect; inactive = no such curve, though single readings can be large or run the other way. The list shows a part of the results.
biological target: Galactocerebrosidase (Homo sapiens) (UniProt P54803); assay: A Novel Cell-Based Assay to Identify Small Molecules for B -Galactocerebrosidase; conditions: 145M-Twi-hGALC-G270D cells (Twitcher mouse brain line with human GALC G270D), HMU-beta-Gal fluorescence, 48 h; series mostly up to 57.5 µM; activation: at the top concentration; note: 0% is about no effect; nearly all actives have a fitted effect of over 65% in size
Method in brief: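 Mutant human GALC (G270D), stably expressed in a Twitcher mouse brain cell line lacking endogenous GALC, is measured in live-treated cells via 6-hexadecanoylamino-4-methylumbelliferyl-β-galactoside hydrolysis (0.1 mM final, pH 5.2) with fluorescent detection.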

Sequence of UniProt P54803 (P54803 whole entry, looked up): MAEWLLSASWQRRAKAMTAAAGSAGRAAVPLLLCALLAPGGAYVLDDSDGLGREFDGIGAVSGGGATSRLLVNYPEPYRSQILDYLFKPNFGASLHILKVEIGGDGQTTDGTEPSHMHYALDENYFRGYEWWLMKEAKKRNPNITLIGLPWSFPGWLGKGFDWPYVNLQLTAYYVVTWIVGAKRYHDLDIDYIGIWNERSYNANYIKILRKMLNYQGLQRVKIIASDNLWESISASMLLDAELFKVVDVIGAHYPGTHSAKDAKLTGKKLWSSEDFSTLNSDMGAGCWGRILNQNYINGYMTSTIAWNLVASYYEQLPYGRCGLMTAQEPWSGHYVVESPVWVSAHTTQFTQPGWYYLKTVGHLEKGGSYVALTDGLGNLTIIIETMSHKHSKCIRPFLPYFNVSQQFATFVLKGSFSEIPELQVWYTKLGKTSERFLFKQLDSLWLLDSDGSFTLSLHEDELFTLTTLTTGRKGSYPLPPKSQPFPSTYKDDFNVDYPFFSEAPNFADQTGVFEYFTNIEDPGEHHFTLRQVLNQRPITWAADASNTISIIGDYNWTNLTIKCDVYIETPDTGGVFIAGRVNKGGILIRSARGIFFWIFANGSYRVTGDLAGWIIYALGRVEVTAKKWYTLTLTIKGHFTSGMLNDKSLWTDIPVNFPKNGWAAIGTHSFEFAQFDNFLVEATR

activation, inactive:
CC1=C(c2ccc(C(C)C)cc2)S(=O)(=O)N=C1N1CCC(C(=O)Nc2ccc(C)cc2)CC1 -14%, CCOc1ccc(-c2nnc(SCC(=O)Nc3ccc(C)cc3C)o2)cc1 -7.05%, COC(=O)c1ccc(NC(=O)n2ncc3c(C)cccc32)cc1 5.39%, CCOC(=O)c1[nH]c2c(c1Cc1ccccc1C)C(=O)CC(c1ccccc1)C2 (stereo not drawn) -21.9%, Cc1ccc(S(=O)(=O)N2CCN(Cc3cc(=O)n4nc(-c5ccccc5Cl)sc4n3)CC2)cc1 -11.1%, Cn1c(=O)cc(SCC(=O)NCc2ccc(F)cc2)c2cc(Cl)ccc21 -16.4%, CCOC(=O)c1c(C)[nH]c(C)c1S(=O)(=O)N1CCC(C(=O)Nc2ccccc2CC)CC1 -11.6%, Cc1c(C(=O)N2CCCCCC2)c(S(=O)(=O)Nc2cccc(C#N)c2)c(C)n1C -3.93%, Cc1cc(=O)[nH]c2nnc(SCc3ccccc3F)n12 -18.2%, O=C(NCCc1ccccc1)C(=O)NCC(c1cccs1)S(=O)(=O)c1cccs1 (stereo not drawn) -12%, CC1(C)N=C(SCc2ccc(Cl)cc2)c2ccccc2N1 6.64%, CCCCNC(=O)CSc1nc2cc3c(cc2c(=O)n1Cc1ccc(C(=O)NCCc2ccc(OC)c(OC)c2)cc1)OCO3 -9.59%, CCc1ccc(-n2nc(CO)c(C(=O)NCc3ccccc3Cl)n2)cc1 -11%, Cn1c(=O)c(=O)n(C)c2cc(NS(=O)(=O)c3ccc(Br)cc3)c(Cl)cc21 -18%, COc1ccc(NC(=O)N2CCCn3nc(C)cc32)cc1OC -13.8%, O=C(CCC(=O)N1Cc2ccccc2Oc2ncccc21)NCc1cccc(Cl)c1 -13.7%, O=C(NCc1cccc(Cl)c1)c1ccc(NC(=O)N2CCSc3ccccc32)cc1 -10%, Cc1cc2[nH]c(=O)c(=O)[nH]c2cc1S(=O)(=O)N1CCN(c2ccccc2)CC1 -6.75%, COc1ccc(Cc2nc3ccccc3n2Cc2ccccc2C)cc1 2.2%, CCn1c(C(=O)NCc2ccccc2Cl)cc2sc(Cl)cc21 -12.3%, CC1CCN(c2nc3ccc(C(=O)NC(C)C)cc3s2)CC1 6.8%, Cc1ccc(CN2C(=O)SC(Nc3ccc(Cl)cc3)C2=O)cc1 (stereo not drawn) -7.6%, Cc1ccc(Cc2c(C)nc3nc(SCC(=O)NCCC(C)C)nn3c2C)cc1 -9.58%, COc1ccc(NC(=O)Cn2c(=O)n(-c3ccc(C)cc3)c(=O)c3c2c2cc(C)ccc2n3C)cc1 -12.9%, Cc1nn(C)c(C)c1S(=O)(=O)N(CC(=O)Nc1ccc(F)cc1F)c1ccc(C(C)C)cc1 -2.77%, O=C(CN1C(=O)CCn2nc(-c3ccccc3)cc21)NCc1ccccc1 -12.9%, COc1cccc(CNC(=O)C(=O)NCC(c2ccco2)S(=O)(=O)c2ccccc2)c1 (stereo not drawn) -24.7%, O=C(Nc1onc2c1CCCC2)c1ccccc1 11%, CCC(Sc1nnc2c3ccccc3n(CC)c2n1)C(=O)Nc1ccc(NC(C)=O)cc1 (stereo not drawn) -19%, Cc1ccccc1-c1nc(CS(=O)(=O)CC(=O)NCCCc2ccccc2)c(C)o1 -2.18%, COc1ccc(-n2nc(C(=O)NCCc3ccc(OC)c(OC)c3)c3c4ccccc4n(C)c3c2=O)cc1 -18.5%, CCCOc1cccc(C2c3c(oc4ccc(F)cc4c3=O)C(=O)N2CCc2ccc(OC)cc2)c1 (stereo not drawn) -12.9%, COc1cccc(C2C(C(=O)Nc3ccccc3OC)=C(C)Nc3nc(-c4ccco4)nn32)c1 (stereo not drawn) -11.7%, O=C(Cn1cnc2onc(-c3ccc(F)cc3)c2c1=O)N1CCN(c2ccc(F)cc2)CC1 -19.4%, COc1cccc(CNC(=O)c2sc3ncccc3c2-n2c(C)ccc2C)c1OC -9.6%, O=C(Cn1nc(Cc2cccnc2)c2ccccc2c1=O)Nc1ccc(F)c(Cl)c1 -2.86%, COc1ccc(-c2noc(CSc3nc4ccc(C)cc4[nH]3)n2)cc1 -41.3%, CCC(C(=O)Nc1cc(C(F)(F)F)ccc1Cl)n1nc(C)c2sc3ccccc3c2c1=O (stereo not drawn) -1.87%, COc1ccccc1CNC(=O)Cn1nc(C)n2cccc2c1=O 7.15%, COc1ccc(C(=O)NCC(c2ccc(Cl)cc2)N2CCCCC2)cc1 (stereo not drawn) -10.7%, O=C(Nc1ccc(F)cc1F)C1CCN(S(=O)(=O)c2ccc3[nH]c(=O)ccc3c2)CC1 -13.7%, CCc1ccc(NC(=O)Cn2nnc(C(=O)NCc3ccc(C)cc3)c2N)cc1 -0.0453%, CNCCC(Oc1ccc(C(F)(F)F)cc1)c1ccccc1 (stereo not drawn) -11%, Cc1nc2n(c(=O)c1CCN1CCC(c3noc4cc(F)ccc34)CC1)CCCC2 -15.1%, CCc1ccccc1N(C)C(=O)c1cn(-c2cccc(OC)c2)c(=O)c2ccccc12 -12.2%, CC(=O)c1ccc(N2C(=O)N(Cc3ccccc3C#N)c3ccccc3S2(=O)=O)cc1 7.95%, CN(C)c1ccc(C2C=C(c3ccccc3)Nc3nnnn32)cc1 (stereo not drawn) -11.6%, CCOc1ccc(C(=O)NCC(c2ccc3c(c2)OCO3)N2CCOCC2)cc1 (stereo not drawn) -11.8%, CC1(C(=O)NC2CCCCC2)Cc2ccccc2C(=O)N1Cc1ccccc1Cl (stereo not drawn) -11.6%, COc1cc(NC(=O)CCc2nc3cccnc3n2Cc2cccs2)cc(OC)c1OC -21.2%, CCc1ccc(OCc2nc(-c3ccc(OC)c(OC)c3)no2)c(Br)c1 -8.58%, O=C(CCc1nc2cccnc2n1-c1ccccc1)Nc1ccc(Cl)c(Cl)c1 -8.99%, COc1cc(-c2noc(-c3ccc(NCc4ccco4)c([N+](=O)[O-])c3)n2)cc(OC)c1OC -8.55%, Cc1ccc(-n2ncc(C(=O)Nc3ccc4c(c3)OCO4)c2C2CCN(C(=O)OC(C)(C)C)CC2)c(C)c1 10.5%, Cc1c(C(=O)Nc2ccc(F)c(Cl)c2)oc2ccc(S(=O)(=O)N(C)C3CCCCC3)cc12 -10.7%, Cc1nn(C)c2c1c(C(F)(F)F)cc(=O)n2CC(=O)N1CCCCC1C (stereo not drawn) -9.1%, CCCCN(CC)C(=O)c1cc2c(=O)n3ccccc3nc2n1C -9.33%, CCOC(=O)c1nc(Nc2ccccc2OC)c2ccccc2n1 -11.6%, Cc1cn2c(=O)cc(COc3ccc(NC(=O)c4ccccc4C)cc3)nc2s1 8.43%, O=C(Cn1cnc2c(oc3ccccc32)c1=O)Nc1ccc(OC(F)(F)F)cc1 -17%, O=C(CN1C(=O)CC(c2ccco2)Sc2ccccc21)Nc1ccc(C(F)(F)F)cc1 (stereo not drawn) -12.9%, CC(=O)Nc1ccc(CC(=O)O)cc1 -16%, O=C(Nc1cccc(Cl)c1)N1CCC(CN2CCOCC2)CC1 -16.5%
